Experimental findings from PubChem BioAssay AID1240 (Sanford-Burnham Center for Chemical Genomics, 2008) are described below.

Structures are written as SMILES. About 800 (1.6%) of roughly 50,000 compounds showed an effect of 50% or more. The list shows a part of the results.

This assay addresses Bcl-2-like protein 10 (Homo sapiens) (UniProt Q9HD36). Kind of assay: TR3 peptide-Bcl-B binding displacers, biochemical primary FP assay, phenotype converters (AID 1240).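 Further: 0% = Bcl-B with tracer peptide and DMSO and 100% = tracer peptide lacking Bcl-B.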 As to conditions: GST-Bcl-B / FITC-TR3 peptide fluorescence polarization; stronger effect = higher value; compound at 3.75 mg/L. (Polarisation of emitted light reports the rotation of a fluorescent probe.)
Chain of UniProt Q9HD36 (Q9HD36 whole entry, looked up): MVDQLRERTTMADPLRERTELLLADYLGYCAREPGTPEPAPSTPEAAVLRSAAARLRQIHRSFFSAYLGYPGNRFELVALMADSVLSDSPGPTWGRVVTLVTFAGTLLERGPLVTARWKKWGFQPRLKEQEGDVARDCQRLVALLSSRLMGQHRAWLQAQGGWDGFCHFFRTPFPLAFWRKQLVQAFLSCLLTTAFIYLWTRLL
In the case of `CC(C)CCNC(=O)c1cc([N+](=O)[O-])ccc1Cl`, the displacement was 0.5%.
Regarding `CCOC(=O)c1ccc(NC(=O)CN(c2ccc(Br)cc2)S(C)(=O)=O)cc1`, the displacement was -1.2%.
With `COc1ccc(NC(=O)CN(c2ccc(Oc3ccccc3)cc2)S(C)(=O)=O)cc1OC`, the displacement worked out at 12.7%.
The value for `O=C(CCCOc1ccc(Cl)cc1Cl)N1CCN(Cc2ccccc2)CC1` was -1.3%.
The value for `COc1ccc(OC)c(/C=C(\C#N)c2ccc([N+](=O)[O-])cc2)c1` was 4%.
The value for `Cc1ccc(C)c(N2C(=O)C3C(C2=O)C2(C)C(=O)C3(C)C(c3ccccc3)=C2c2ccccc2)c1` (stereo not given) was -16%; that for `COc1ccc(/C=N/Nc2nc(-c3ccc(C)cc3)nc3ccccc23)cc1OC` was 0.5%.
For `Cc1ccccc1OCCn1cc(C=C2C(=O)NC(=S)NC2=O)c2ccccc21`, the displacement was 6.1%.
For `Cc1ccc(NS(=O)(=O)c2ccc(F)cc2)nc1`, the displacement was -3%.
With `Cc1cc(OCC(=O)Nc2ccc(Cl)c(C(F)(F)F)c2)ccc1Br`, the displacement is -8.4%.
As to `O=C(CCCOc1ccccc1)Nc1ccc(OCc2ccccc2)cc1`, the displacement came out at 1.2%.
The value for `Cc1ccc2nsnc2c1NC(=O)c1cc(Br)ccc1Cl` was 1.4%; that for `Brc1ccc(-c2nnc(SCCCCOc3ccccc3)o2)cc1` was -6.7%; that for `Cc1cc(Nc2ccc(C)c(Cl)c2)n2ncnc2n1` was 10.6%.
The value for `CC(C)c1ccc(NC(=O)C2CC2)cc1` was -3.3%; that for `CC(=O)Nc1ccc(NC(=O)COc2ccccc2)cc1` was -3.3%.
The value for `O=C(Nc1nccs1)c1ccc2c(c1)C(=O)N(CC1CCCO1)C2=O` (stereo not given) was -0.3%.
Regarding `CN(C)CCOC(=O)CCN1C(=O)/C(=C/c2ccc(Cl)cc2Cl)SC1=S`, the displacement came to 10.9%.
The value for `Clc1ccc(-c2noc(-c3ccccc3Br)n2)cc1` was -0.6%; that for `COc1ccc(C(NC(=O)c2ccccc2C)NC(=O)c2ccccc2C)cc1OC` was 2.3%.
The value for `O=C(NCCCNc1ccc([N+](=O)[O-])cc1)c1cc(F)c(F)cc1Cl` was 5.6%.
The value for `CC(=O)NC1=NC(=O)/C(=C/c2cc(C)n(-c3ccc(C(=O)O)cc3)c2C)S1` was -89.7%.
Consider `CCOC(=O)C1=C(C)N=c2s/c(=C\c3cccc(O)c3)c(=O)n2C1c1cccc(OC)c1` (stereo not given), for which the displacement was found to be 41.3%.
The value for `Cn1c(NC(=O)c2ccc(Cl)cc2[N+](=O)[O-])cc(=O)n(C)c1=O` was -6.6%; that for `Cn1ccnc1SCC(=O)c1ccc(Cl)cc1` was 14.7%; that for `NS(=O)(=O)c1ccc(NC(=O)c2cncc(Br)c2)cc1` was -7.5%.
On to `CCCCN1C2=NCCCN2c2ccccc21`, for which the displacement is 4.2%.
The value for `CC1(C)c2ssc(=S)c2-c2ccccc2N1C(=O)CN1CCCCC1` was 8.8%; that for `COc1cccc(NC(=O)c2ccco2)c1` was 2.2%.
The value for `CCCOc1cccc(C(=O)Nc2ccc(NC(=O)c3ccco3)c(OC)c2)c1` was 4.4%; that for `CCc1cccc(NC(=O)Cc2ccccc2)c1` was -3.1%.
The value for `Cc1cc(/C=C2/SC(=O)NC2=O)c(C)n1-c1ccc(C(C)(C)C)cc1` was 16%; that for `Cc1ccc(C(=O)NN(c2ccccc2)c2ccccc2)cc1[N+](=O)[O-]` was -3.2%.
On to `CCCCc1c(C)nc2c(C)cccc2c1SCC(=O)O`, for which the displacement is -8.1%.
Consider `COc1cc(OC)cc(C(=O)Nc2cc(C)ccc2C)c1`, for which the displacement worked out at 13.6%.
The value for `Cc1sc(NS(=O)(=O)c2ccc([N+](=O)[O-])cc2)nc1-c1ccc(Br)cc1` was -2.7%; that for `CCOC(=O)c1ccc(NC(=O)CN(c2ccc(Oc3ccccc3)cc2)S(C)(=O)=O)cc1` was -2.7%; that for `CCc1ccc(OCC(=O)Nc2ccc(-c3nc4ccccc4o3)c(O)c2)cc1` was 0.8%.
The value for `COC(=O)c1ccc(/C=N/NC(=O)CSc2nnc(-c3ccccc3)n2-c2ccccc2)cc1` was 13.8%; that for `Cc1ccc(C(=O)CSc2nc3ccccc3c(=O)[nH]2)cc1C` was 7.8%.
The value for `COc1ccccc1OCCCOc1ccc(C)c(C)c1` was 12.7%; that for `CCC(=NCc1ccco1)c1c(C(F)(F)F)[nH]n(-c2nc3ccccc3s2)c1=O` was -5.1%; that for `Cc1cc(C)nc(SCC(=O)Oc2ccc3c(C)cc(=O)oc3c2)n1` was 6.8%.
For the compound `COc1ccc(CCNC(=O)c2cccc([N+](=O)[O-])c2C)cc1OC`, the displacement is 5.7%.
The value for `Cc1cc(OCC(=O)ONC(=O)c2ccc(Cl)cc2)ccc1Br` was 7.4%; that for `CCOc1cccc(/C=N/NC(=O)CSc2nc3ccccc3n2Cc2ccccc2)c1O` was -5.3%.
Take `O=C(O)c1ccc(CSc2nc3ccc(N4C(=O)C5CCCCC5C4=O)cc3s2)cc1` (stereo not given): the displacement worked out at 1.3%.
The value for `CCOc1ccccc1N(CC(=O)Nc1ccccc1)S(=O)(=O)c1ccccc1` was -7.7%; that for `Cc1ccc(C23CC4CC(CC(O)(C4)C2)C3)cc1N=Cc1cc(Br)ccc1O` was -3.8%.
The value for `O=C(Cc1ccccc1)N1N=C(c2ccc([N+](=O)[O-])cc2)CC1(O)C(F)(F)F` (stereo not given) was 3.5%; that for `O=C(Nc1cccc2c(NC(=O)c3ccco3)cccc12)c1ccco1` was 8.3%.
The value for `Cc1ccc(OCC(=O)Nc2cc([N+](=O)[O-])ccc2C)c(C)c1` was 5.9%; that for `O=C(Nc1ccc(Cl)cc1)c1cccc(S(=O)(=O)N2CCCCC2)c1` was -7.6%.
Turning to `O=C(CSc1nnnn1-c1ccccc1)Nc1nncs1`, the displacement came to 3.2%.
The value for `CCN(CC)C(=O)c1sc(NC(=O)c2cc(Cl)ccc2Cl)c(C#N)c1C` was 1.9%; that for `CC(C)Oc1ccc(NC(=O)CSc2nnnn2-c2ccccc2)cc1` was -8%.
On to `CC(=O)Oc1c(Cl)c(Cl)c(OC(C)=O)c2ccccc12`, for which the displacement amounted to 7.5%.
Turning to `CCc1c(O)nc(SCC(=O)Nc2cccc3ccccc23)[nH]c1=O`, the displacement stood at 0.7%.
As for `Cc1ccc2oc(-c3ccc(Cl)c(NC(=O)c4ccc([N+](=O)[O-])o4)c3)nc2c1`, the displacement is 12.2%.
The value for `CCOC(=O)C(=CNc1ccc(Br)cc1)C(=O)OCC` was 3.9%; that for `CN(C)c1ccc(/C=C(/C#N)C(=O)Nc2cccc(Br)c2)cc1` was 53.8%; that for `Cc1c(C(=O)Nc2ccc3oc(-c4cccnc4)nc3c2)oc2ccccc12` was 35%.
The value for `O=C(O)CN1C(=O)/C(=C\c2cccc(Oc3ccccc3)c2)SC1=S` was -1%; that for `Cc1ccc(OCc2nnc(NC(=O)Nc3cccc(Cl)c3)s2)cc1C` was 14.2%.
The value for `Cc1ccc(S(=O)(=O)N=C2C=C(C(C)C)C(=O)C(C(C)C)=C2)cc1` was -7.8%; that for `COc1ccc(/C=C/C(=O)NC(=S)Nc2ccccc2)cc1OC` was -6.8%; that for `COc1ccc(CC(=O)Nc2ccccc2C(=O)NCC(C)C)cc1` was 10.8%.
Take `CCSCCOC(=O)C1=C(C)NC(=O)NC1c1cccc(Br)c1` (stereo not given): the displacement came out at 1.3%.
As to `C=C(C)CNC(=S)NNC(=O)CCn1c2ccccc2c2ccccc21`, the displacement is -11.3%.
The value for `Cc1cc(C)c(S(=O)(=O)Nc2cc(C(F)(F)F)ccc2Cl)c(C)c1` was -2.8%; that for `Cc1ccc(C(=O)Nc2cccc3nsnc23)cc1` was -1%.
The value for `COc1ccc(OCC(=O)Nc2ccc(OC)cc2OC)cc1` was -5%; that for `O=C1OC(c2cccs2)=N/C1=C\c1cccc(Cl)c1Cl` was 29.5%.
The value for `CNc1nc(NC)nc(-n2c(C(F)(F)F)nc3ccccc32)n1` was 11.9%; that for `CC(C)NC(=O)c1ccc(CN2CCN(c3ccccc3)CC2)cc1` was -3.3%.
For the compound `Cc1ccc(NC(=O)C2CC=CCC2C(=O)OCC(Cl)=C(Cl)Cl)cc1` (stereo not given), the displacement was determined as 2.2%.
Regarding `COc1cc([N+](=O)[O-])cc2c1N=C(c1ccc(Br)cc1)NO2`, the displacement was determined as 4.3%.
The value for `CC(=O)C1=C(O)CC(C)(C)CC1=Nc1ccccc1O` was -18.6%; that for `COCCOC(=O)c1c(C)oc2ccc(OCC(=O)c3ccccc3)cc12` was 6.1%.
The value for `Cc1ccc(S(=O)(=O)N2CCCC2)cc1` was 1.6%.
The value for `COc1ccc(-c2nnc(NC(=O)c3ccc(F)cc3)s2)cc1OC` was 10%; that for `O=C1CCC([N+](=O)[O-])C(c2ccc3c(c2)OCO3)N1` (stereo not given) was 1.1%; that for `N#Cc1c(/N=C/c2cc([N+](=O)[O-])c(N3CCOCC3)cc2N2CCOCC2)sc2c1CCCC2` was 14.5%.
With `CCOC(=O)Cc1csc(NC(=O)COc2ccc(-c3ccccc3)cc2)n1`, the displacement is 15.5%.
With `Fc1cccc(Cl)c1Cc1noc(-c2ccc(Br)cc2)n1`, the displacement came to 13.6%.
In the case of `O=c1c(-c2ccc(Cl)cc2)coc2c(CN3CCCCCC3)c(O)ccc12`, the displacement is -12%.
The value for `COc1cccc(/C=C2\SC(=S)N(NC(=O)c3cccc([N+](=O)[O-])c3)C2=O)c1` was -14.5%.
The value for `COC(=O)c1ccc(OCC(O)Cn2c3ccccc3c3ccccc32)cc1` (stereo not given) was -29.4%.
The value for `COc1ccccc1CN1CCN(S(=O)(=O)c2ccccc2)CC1` was -4.5%; that for `COc1cc(/C=C/C(=O)c2c(C)cc(C)[nH]c2=O)cc(OC)c1OC` was 8.5%; that for `O=C(CSc1nnc(-c2cccc(F)c2)n1-c1ccccc1)Nc1ccccc1` was -13.8%.
Turning to `Cc1ccc(NC(=O)c2ccc([N+](=O)[O-])cc2Cl)c(Br)c1`, the displacement is -3%.
Take `CN(C)C(=O)NCCSCc1ccccc1Cl`: the displacement came out at 2.2%.
`COc1ccc(Nc2cc(C)nc(-c3ccccc3O)n2)cc1`: the displacement is -10.7%.
Regarding `Cc1ccnc(NS(=O)(=O)c2ccc(NC(=O)c3cccc(I)c3)cc2)n1`, the displacement is 34.2%.
The value for `COc1ccc(C(=O)NNC(=O)c2cccc(Cl)c2)c(OC)c1` was -2%; that for `CCCC(=O)Nc1ccc(NC(=O)c2ccco2)cc1` was -3.2%; that for `NNc1nc(-c2ccccc2)cs1` was 6.4%.
On to `CC(=O)c1ccc(NC(=O)/C(=C\c2ccco2)NC(=O)c2ccco2)cc1`, for which the displacement was -32.9%.
Take `N/C(Cc1ccc([N+](=O)[O-])cc1)=N\OC(=O)Cc1ccc(Cl)cc1`: the displacement is -8.1%.
The value for `Cc1ccc(C(=O)Nc2cccc(NC(=O)c3ccc(C)cc3)n2)cc1` was 3.9%; that for `Cc1cc2nc(-c3ccc(NC(=O)c4cccc([N+](=O)[O-])c4C)cc3)oc2cc1C` was -2.6%.
The value for `C(=NC1=NN(c2ccccc2)CC1)N1CCCCC1` was 2.8%.
The value for `CCc1ccc(-n2c(C)cc(/C=C(/C#N)C(=O)N3CCOCC3)c2C)cc1` was -0.4%.
Take `COc1ccc(C2C(C(C)=O)=C(Nc3ccccc3)CC(C)(O)C2C(C)=O)cc1` (stereo not given): the displacement is 1.4%.
The value for `O=[N+]([O-])c1ccc(C=NC23CN4CN(CN(C4)C2)C3)s1` was -8%; that for `Cc1ccc(C(=O)Nc2ccccc2)cc1[N+](=O)[O-]` was 4.6%; that for `O=C1NC(=S)N/C1=C/c1ccc(O)c(Br)c1` was 23.3%.
The value for `CC(C)c1ccc(N=C2C(=O)Nc3ccc(Br)cc32)cc1` was 5.1%.
The value for `Cc1cccc(NC(=O)c2ccc(-c3ccc(C)c(Cl)c3)o2)c1` was 69.8%.
